# Measurements published in PubChem BioAssay AID1645882 (National Center for Advancing Translational Sciences (NCATS), 2021).
# Out of some 16,000 compounds screened, about 120 (0.75%) were called active. Another 4% or so got no clear call; they are omitted. Calls follow the shape of the dose curve; as a rule, active = well fitted inhibition curve with a large enough effect; inconclusive = small, poorly fitted or top-dose-only effect; inactive = no such curve, though single readings can be large or run the other way. This is one part of the list. *1 amine or outer side, *2 acyl side, *3 side chain or, on linkers, in order; H or OH if unused. Where a SMILES comes first, the peptide text is derived from it. [ ]: non-standard residue; d: D form. X10 = C[C@H](O)[C@@H](C(=O)[*:2])N(C(C)(C)C)[*:1]; X9 = CC(C)(C)N([C@@H](CS)C(=O)[*:2])[*:1]
# Target: Rap guanine nucleotide exchange factor 3 (Homo sapiens) (UniProt O95398)
# Test: Validation qHTS for antagonist of cAMP-regulated guanine nucleotide exchange factor 3 (EPAC1);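 also: plate controls were DMSO for no effect and ATA control for full effect; nearly all actives have a fitted effect of over 75% in size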
# Conditions: EPAC1 Rap1B-BODIPY-GDP exchange, fluorescence; activity change, negative = inhibition: at the top concentration
# Method in brief: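 Nucleotide exchange followed as fluorescence loss when BODIPY-GDP leaves Rap1B (480 nm excitation, 540 nm emission), read at 5 min intervals over 30 min. Reaction: 100 nM EPAC1, 250 nM RAP1B-BODIPY-GDP, 50 uM GDP; ATA and DMSO define normalization.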
# Sequence of UniProt O95398 (O95398 whole entry, looked up): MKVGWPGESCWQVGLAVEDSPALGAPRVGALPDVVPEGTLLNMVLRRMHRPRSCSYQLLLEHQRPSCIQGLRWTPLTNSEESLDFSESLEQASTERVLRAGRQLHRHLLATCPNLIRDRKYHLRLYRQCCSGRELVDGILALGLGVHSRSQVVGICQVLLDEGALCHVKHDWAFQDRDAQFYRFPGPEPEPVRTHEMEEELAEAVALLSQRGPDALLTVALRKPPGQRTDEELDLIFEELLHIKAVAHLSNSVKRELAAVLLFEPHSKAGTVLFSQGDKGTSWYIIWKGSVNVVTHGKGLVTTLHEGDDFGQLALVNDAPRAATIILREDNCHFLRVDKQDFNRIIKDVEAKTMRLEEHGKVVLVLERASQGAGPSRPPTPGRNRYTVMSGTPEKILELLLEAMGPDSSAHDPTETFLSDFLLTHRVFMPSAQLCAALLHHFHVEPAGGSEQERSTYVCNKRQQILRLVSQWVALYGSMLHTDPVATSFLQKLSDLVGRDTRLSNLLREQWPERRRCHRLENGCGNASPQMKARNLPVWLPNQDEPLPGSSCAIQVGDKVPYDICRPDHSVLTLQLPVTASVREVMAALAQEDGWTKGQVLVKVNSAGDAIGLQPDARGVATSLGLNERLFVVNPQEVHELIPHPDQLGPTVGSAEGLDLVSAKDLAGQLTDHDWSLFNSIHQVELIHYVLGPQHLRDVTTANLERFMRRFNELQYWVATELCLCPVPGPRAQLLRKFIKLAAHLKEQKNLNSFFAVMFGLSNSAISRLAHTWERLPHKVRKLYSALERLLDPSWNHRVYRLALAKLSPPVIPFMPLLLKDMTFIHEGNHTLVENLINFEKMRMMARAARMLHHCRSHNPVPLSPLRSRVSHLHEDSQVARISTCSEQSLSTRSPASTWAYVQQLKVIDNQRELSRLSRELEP
row,SMILES,"activity change, negative = inhibition"
1,CCS(=O)(=O)Nc1cccc(C(=C2CCCCC2)c2cnc[nH]2)c1,inactive: -4.88% [at 75.8 µM]
2,CCCCOC(=O)c1ccccc1C(=O)OCc1ccccc1,inactive: 42.1% [at 320 µM]
3,CC[C@@H](C(N)=O)N1CCCC1=O,inactive: -2.55% [at 75.8 µM]
4,NCC(O)c1cc(O)c(O)cc1F (configuration not stated),inactive: -9.59% [at 75.8 µM]
5,O=C(O)CCCc1ccc(N(CCCl)CCCl)cc1,inactive
6,O=C(Nc1cccc(F)c1)N1CCC2(CC1)CCN(C(=O)Oc1ccccc1)CC2,inactive: 2.49%
7,O=C(c1cnccn1)N1CCC2(CC1)CN(Cc1ccncc1)C2,inactive: 17.5%
8,c1ccc2c(c1)OC[C@@H](C1=NCCN1)O2,inactive: 9.42%
9,OCC1OC(n2cnc3cc(Cl)c(Cl)cc32)C(O)C1O (configuration not stated),inactive: -9.9%
10,N#Cc1ccc(CN2CC3(CCNCC3)C2)cc1,inactive: 3.42%
11,CN1C(=O)CCS(=O)(=O)[C@H]1c1ccc(Cl)cc1,inactive: -4.72%
12,NCC(CS(=O)(=O)O)c1ccc(Cl)cc1 (configuration not stated),inactive: 22.8%
13,C[C@H]1[C@@H]2Cc3ccc(O)cc3[C@@]1(C)CCN2C,inactive: 29.3% [at 606 µM]
14,COc1cc2c(cc1OC)[C@@H]1C(=O)c3ccc4c(c3OC1CO2)CC(C(C)C)O4 (some centres not stated),inactive: -8%
15,N#C/C(=C\c1cccc(O)c1)C(=O)O,inactive: 19.2%
16,COP(=S)(OC)Oc1ccc(SC)c(C)c1,inactive
17,CN(CCc1ccc(Cl)c(Cl)c1)[C@H]1CCCC[C@H]1N1CCCC1,inactive: -5.35%
18,O=c1[nH]c2ccccc2n1CCCN1CCC(n2c(=O)[nH]c3cc(Cl)ccc32)CC1,inactive
19,C[N+](C)(C)CC(=O)O,inactive: 12.4%
20,c1ccc(C2(N3CCCC3)CCCCC2)cc1,inactive: 4.86%
21,O=C(O)COc1nc(Cl)c(Cl)cc1Cl,inactive: 27.6% [at 320 µM]
22,CC1CCCC(=O)CCC/C=C/c2cc(O)cc(O)c2C(=O)O1 (configuration not stated),inactive: 7.82%
23,CN1C[C@H](CNC(=O)OCc2ccccc2)C[C@H]2c3cccc4c3c(cn4C)C[C@@H]21,inactive: -0.764%
24,COC1C(O)C(OC2CC[C@]3(C=O)C4C(OC(C)=O)C[C@@]5(C)C(C6=CC(=O)OC6)CC[C@]5(O)C4CC[C@]3(O)C2)OC(C)C1OC(C)=O (some centres not stated),inactive: 1.5%
25,C#C[C@]1(O)CC[C@H]2[C@@H]3CCC4=CC(=O)CC[C@]4(C)[C@H]3CC[C@@]21C,inactive

row,SMILES,"activity change, negative = inhibition"
1,COP(=S)(OC)SCn1nnc2ccccc2c1=O,inactive: 7.86%
2,C[C@H]1CC[C@@H]2[C@@H](C)[C@H]3[C@H](C[C@H]4[C@@H]5CC=C6CC(O[C@@H]7O[C@H](CO)[C@H](O)[C@H](O[C@@H]8O[C@H](CO)[C@@H](O)[C@H](O)[C@H]8O)[C@H]7O[C@H]7O[C@@H](C)[C@H](O)[C@@H](O)[C@H]7O)CC[C@]6(C)[C@H]5CC[C@]34C)N2C1 (some centres not stated),inactive: 8.02%
3,CCCCC[C@@H](O)C1C(=O)OC(C)[C@H](O)/C=C/C=C/C=C/C=C/C=C(\C)C(O)C(O)C(O)C[C@H](O)C[C@H](O)C[C@H](O)C[C@H](O)C[C@@H]1O (some centres not stated),inactive
4,CC(C)[N+](C)(CCC(C(N)=O)(c1ccccc1)c1ccccc1)C(C)C,inactive
5,CCC(Oc1ccc(Cl)cc1)C(=O)OC1CC2CCC(C1)N2C (configuration not stated),inactive: 33%
6,COc1ccc2c(c1)C13CCCCC1C(C2)N(C)CC3 (configuration not stated),inactive: 18.6% [at 75.8 µM]
7,CC(=O)OC1CC(OC(C)=O)[C@]2(C)C(CC(OC(C)=O)[C@]3(C)C2CC[C@@]2(C)C(c4ccoc4)C(=O)C4O[C@]432)C1(C)C (some centres not stated),inactive: -18.6%
8,CC1=C[C@@H]2c3cccc4[nH]cc(c34)C[C@H]2N(C)C1,inactive: 1.32%
9,O=[N+]([O-])c1c(Cl)c(Cl)cc(Cl)c1Cl,inactive: 19.2% [at 320 µM]
10,CCCCCCCCCCCCCCCC(=O)OC[C@H](COP(=O)([O-])OCC[N+](C)(C)C)OC(C)=O,inactive: 24.1% [at 15.3 µM]
11,Cc1ccc(N=CN(C)C=Nc2ccc(C)cc2C)c(C)c1,inactive: 13.5%
12,CC(C)C[C@H](NC(=O)[C@H](Cc1ccccc1)NC(=O)CNC(=O)[C@H](CS)N(C(=O)[C@@H](N)Cc1ccc(O)cc1)C(C)(C)C)C(=O)N([C@H](C(=O)O)[C@H](C)O)C(C)(C)C (H-Y[X9]GFL[X10]-OH),inactive: 21.4% [at 15.3 µM]
13,C=CCN1CC[C@]23c4c5ccc(O)c4O[C@H]2/C(=N/NC(=O)c2ccccc2)CC[C@@]3(O)[C@H]1C5,inactive: 23.6% [at 75.8 µM]
14,CNC1(c2ccccc2Cl)CCCCC1=O (configuration not stated),inactive
15,CC(C)CC(N(C)C)C1(c2ccc(Cl)cc2)CCC1 (configuration not stated),inactive: 8.13%
16,N#CN,inactive: 7.44%
17,CNC(C)C(O)c1ccc(O)cc1 (configuration not stated),inactive
18,CNC(=O)O/N=C(/C)SC,inactive: 20.8%
19,COc1ccc(CC2c3cc(OC)c(OC)cc3CCN2C)cc1OC (configuration not stated),inactive: 9.88%
20,CC(C)(C)NC[C@H](O)c1ccc(O)cc1Cl,inactive: 23.9%
21,COC(C)(C)CCCC(C)C/C=C/C(C)=C/C(=O)OC(C)C (configuration not stated),inactive
22,N#Cc1ccc(CN2CCC3(CC2)CCN(C(=O)Oc2ccccc2)CC3)cc1,inactive: 3.01%
23,CC(C)[C@H]1C(=O)N2CCC[C@H]2[C@]2(O)O[C@](NC(=O)[C@@H]3C[C@@H]4c5cccc6[nH]cc(c56)C[C@H]4N(C)C3)(C(C)C)C(=O)N12,inactive: 28.6%
24,CCOC(=O)c1ccccc1C(=O)OCC,inactive: 6.17%
25,O=C(Nc1ccccc1)N1CCC2(CC1)CCN(C(=O)Oc1ccccc1)CC2,inactive: 7.29%

row,SMILES,"activity change, negative = inhibition"
1,NC(N)=NOCC[C@H](N)C(=O)O,inactive
2,O=C(O)c1ccccc1-c1c2cc(Br)c(=O)cc-2oc2[c]([Hg])c(O)c(Br)cc12,inactive: -157%
3,N[C@@H](Cn1oc(=O)[nH]c1=O)C(=O)O,inactive
4,CC[C@H]1C[C@H]2[C@@H]3CCC4=CC(=O)CC[C@@H]4[C@H]3CC[C@]2(C)[C@H]1O,inactive: 24.8%
5,O=C1CC[C@]2(O)C3Cc4ccc(O)c5c4C2(CCN3CC2CC2)C1O5 (some centres not stated),inactive: 7.9%
6,Oc1cc[c]([Hg][Cl])cc1,inactive
7,c1ccc2c(c1)Sc1ccccc1N2CC1CN2CCC1CC2 (configuration not stated),inactive: 28.4%
8,COC(=O)COc1ccc(Cl)cc1Cl,inactive: 3.93%
9,S=C(NC1CCCCC1)N1CCC(c2cnc[nH]2)CC1,inactive
10,C[N+]1(CCC(C(N)=O)(c2ccccc2)c2ccccc2)CCCCC1,inactive: -8.26%
11,CC(C)CN1CCC2(CC1)CCN(C(=O)Oc1ccccc1)CC2,inactive: 17.5%
12,O=P1(N(CCCl)CCCl)NC(OO)CCO1 (configuration not stated),inactive: 5.54%
13,COC(=O)/C=C\C(=O)N[C@@H]1CC[C@@]2(O)[C@H]3Cc4ccc(O)c5c4[C@@]2(CCN3CC2CC2)[C@@H]1O5,inactive: 13.7%
14,CC[C@H]1[C@@H]2C[C@H]3[C@@H]4N(C)c5ccccc5[C@]45C[C@@H](C2[C@H]5O)N3[C@@H]1O (some centres not stated),inactive: -10% [at 75.8 µM]
15,CN1CCC2(CC1)CCN(C(=O)c1ccco1)CC2,inactive: 8.82%
16,CCCCCCCCCCCCCC(=O)OC1C(C)[C@@]2(O)C(C=C(CO)C[C@]3(O)C(=O)C(C)=C[C@H]23)[C@@H]2C(C)(C)[C@]12OC(C)=O (some centres not stated),inactive: -17.6%
17,ClCC1CO1 (configuration not stated),inactive: 9.84%
18,C/C=C1/C[N@@+]2(C)CC[C@]34C(=C(C=O)[C@H]1C[C@H]32)Nc1ccccc14,inactive: -4.2%
19,CCCC(C)(COC(N)=O)COC(N)=O,inactive: 21.1%
20,CN1CCCC2(CCN(C(=O)c3ccco3)CC2)C1,inactive: 10.4%
21,CC1=NCCc2c1[nH]c1cc(O)ccc21,inactive
22,COC(=O)N1CCC2(CCN(CC(C)C)CC2)CC1,inactive: 4.19%
23,Clc1cnc(Oc2ccc(Oc3ncc(Cl)cc3Cl)cc2)c(Cl)c1,inactive
24,[O]=[Cd],inactive: 16.4%
25,COc1c2c(c(CC=C(C)C)c3oc(=O)c(-c4ccc(O)cc4)c(O)c13)OC(C)(C)C=C2,inactive: -16.9%

row,SMILES,"activity change, negative = inhibition"
1,CCCN(CCC)[C@@H]1CCc2ccc(O)cc2C1,inactive
2,CNCCc1ccc(O)c(O)c1,inactive
3,OC[C@H]1O[C@@H](n2cnc3cc(Cl)c(Cl)cc32)[C@H](O)[C@H]1O,inactive: 34%
4,CN(C(=O)Cc1ccc(Cl)c(Cl)c1)[C@H](CN1CCCC1)c1ccccc1,inactive
5,CNNC,inactive: 11.5%
6,CCN1C[C@]2(COC(=O)c3ccccc3N3C(=O)C[C@H](C)C3=O)CC[C@H](OC)[C@@]34[C@@H]5C[C@H]6[C@H](OC)[C@H]5[C@](O)(C[C@@H]6OC)[C@@](O)([C@@H](OC)[C@@H]23)[C@@H]14,inactive: -5.23%
7,NCC(=O)c1ccc(Cl)c(Cl)c1,inactive: 16.1%
8,CC1OC(=O)C(C(C)C)NC(=O)C(C(C)C)OC(=O)C(C(C)C)NC(=O)C(C)OC(=O)C(C(C)C)NC(=O)C(C(C)C)OC(=O)C(C(C)C)NC(=O)C(C)OC(=O)C(C(C)C)NC(=O)C(C(C)C)OC(=O)C(C(C)C)NC1=O (configuration not stated),inactive: -5.43% [at 75.8 µM]
9,COC1C(O)C(C)O[C@@H](OC2CC[C@@]3(C)C4CC[C@]5(C)C(C6=CC(=O)OC6)CC[C@@]5(O)C4CC[C@@H]3C2)C1O (some centres not stated),inactive: 21.8%
10,CC1(C)[C@@H](O)C[C@H]2[C@](C)(O)[C@@H]3CC[C@H]4[C@@H](O)[C@@]3(C[C@@H](O)[C@@]21O)C[C@@]4(C)O,inactive
11,C=CC[C@]1(O)CC[C@H]2[C@@H]3CCC4=CC(=O)CCC4=C3C=C[C@@]21C,inactive: 33.5%
12,C[C@@H]1O[C@H](C[N+](C)(C)C)C[C@@H]1O,inactive: 9.38%
13,CS(=O)(=O)c1ccc(C(=O)C2C(=O)CCCC2=O)c([N+](=O)[O-])c1,inactive: 34.6% [at 320 µM]
14,C=CCN1CC[C@]23c4c5ccc(O)c4OC2C(=O)CC[C@]3(O)C1C5 (some centres not stated),inactive: 8.06%
15,COc1cc2c(cc1OC)-c1c(O)c(OC)cc3c1[C@H](C2)N(C)CC3,inactive: 5.87%
16,CCOc1ccc2c3c1O[C@H]1[C@@H](O)C=C[C@H]4[C@@H](C2)N(C)CC[C@@]341,inactive: 19%
17,Cn1cnc(CCN)c1,inactive: -4.39% [at 75.8 µM]
18,COc1cc2c(cc1OC)-c1c(OC)c(OC)c(C=O)c3c1[C@H](C2)N(C)CC3,inactive: -8.9%
19,Cc1ccccc1-n1c(CF)nc2ccc(N)cc2c1=O,inactive: 6.26%
20,COc1ccc(NC(=O)N2CCCC3(CCN(C(=O)Oc4ccccc4)CC3)C2)cc1,inactive: 13.8%
21,CC(Cc1ccc(O)cc1)NCC(O)c1cc(O)cc(O)c1 (configuration not stated),inactive
22,C/C(=C\c1csc(C)n1)[C@@H]1C[C@@H]2O[C@]2(C)CCC[C@H](C)[C@H](O)[C@@H](C)C(=O)C(C)(C)[C@@H](O)CC(=O)O1,inactive: 14.9%
